“And” between values parts separate entries of the source, which are not always exact repeats. Equal entries are not always repeated. Among all 360,000 compounds or so, about 25,000 (6.9%) were called active. This list was built around the results that the source calls inconclusive (neither active nor inactive); the mix of calls is not that of the screen. Calls come from the whole dose curve; as a rule, active = well fitted inhibition curve with a large enough effect; inconclusive = small, poorly fitted or top-dose-only effect; inactive = flat fitted curve, though single readings scatter. Potencies of inconclusive entries are doubtful fits and often do not repeat.
target: Luciferin 4-monooxygenase (Photinus pyralis) (UniProt P08659); test: qHTS profiling assay for firefly luciferase inhibitor/activator using purifed enzyme and Km concentrations of substrates (counterscreen for miR-21 project); details: purified FLuc, luminescence inhibition; series mostly up to 57.5 µM; activity change, negative = inhibition: at the top concentration; note: nearly all actives have a fitted effect of over 55% in size;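 for activity change, negative = inhibition: plate controls were vehicle for no effect and reference inhibitor for full effect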
Sequence of UniProt P08659 (P08659 whole entry, looked up): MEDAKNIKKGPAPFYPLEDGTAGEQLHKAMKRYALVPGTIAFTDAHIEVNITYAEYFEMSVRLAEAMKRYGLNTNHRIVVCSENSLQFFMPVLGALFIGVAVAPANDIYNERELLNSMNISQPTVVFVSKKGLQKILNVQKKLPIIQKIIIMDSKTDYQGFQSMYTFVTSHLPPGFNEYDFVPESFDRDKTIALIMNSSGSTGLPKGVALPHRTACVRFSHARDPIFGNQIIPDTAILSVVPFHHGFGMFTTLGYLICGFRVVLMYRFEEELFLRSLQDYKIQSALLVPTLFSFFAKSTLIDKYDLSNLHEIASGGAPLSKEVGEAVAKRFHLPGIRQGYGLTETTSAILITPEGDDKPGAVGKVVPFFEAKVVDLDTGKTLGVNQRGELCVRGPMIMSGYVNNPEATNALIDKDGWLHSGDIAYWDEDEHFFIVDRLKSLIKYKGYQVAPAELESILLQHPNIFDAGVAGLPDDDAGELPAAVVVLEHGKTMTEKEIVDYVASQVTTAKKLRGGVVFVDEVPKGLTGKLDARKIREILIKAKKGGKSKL
Summary of the method: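 Purified P. pyralis luciferase (10nM final) with 10uM D-luciferin and 10uM ATP (Km levels) in 50mM Tris acetate pH 7.5, 10mM Mg acetate, 0.01% Tween-20, 0.05% BSA; qHTS 6-point titration, ~60 µM downward; luminescence read.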
Potency is the fitted concentration of half-maximal effect; tags give direction and shape of the fitted curve.

Compound | Potency | activity change, negative = inhibition
COC(=O)c1ccn(Cc2ccccc2Cl)n1 | inconclusive: 21.3 µM [inhibitor, partial curve] | 
COc1ccc(C(=O)Nc2ccc(N3CCCCC3)cc2)cc1Br | inconclusive: 1.2 µM [inhibitor, full curve] | 
C/C(=N/Nc1nc(-c2ccccc2)cc(-c2ccc(F)cc2)n1)c1cccc(N)c1 | active: 9.53 µM | 
COc1ccccc1NC(=O)c1cc2ccccc2o/c1=N\O | inconclusive: 12 µM [inhibitor, partial curve, poor fit] | 
O=C(c1ccc2c(c1)N(Cc1ccccc1)C(=O)c1ccccc1S2(=O)=O)N1CCN(Cc2ccccc2)CC1 |  | inactive: 1.23%
CC(C)(O)CCC(C)(C)O |  | inactive: 8.52%
CC(C)CCn1c(/C=C/c2ccccc2)nc2ccccc21 | active: 4.26 µM | 
Cc1ccc(-c2cn3ccc(C)cc3n2)cc1 | active: 0.151 µM | 
O=C(CSc1nnc(-c2ccco2)o1)c1ccc[nH]1 | inconclusive: 30.1 µM [inhibitor, single point] | 
Cn1cc(/C=C(\C#N)C(=O)Nc2ccccc2O)c2ccccc21 | inconclusive: 30.1 µM [inhibitor, single point] | 
O=C(NCc1cccnc1)Nc1ccc(Cl)c(Cl)c1 | inconclusive: 23.9 µM [inhibitor, partial curve, poor fit] | 
COc1cccc2sc(N(C)c3ccccc3)nc12 | active: 0.849 µM | 
O=C(Nc1ccccc1Cl)N1CCSc2ccccc21 | inconclusive: 37.9 µM [inhibitor, partial curve, poor fit] | 
c1ccc2c(c1)ccc1nnc(SCc3ccc4c(c3)OCCO4)n12 | inconclusive: 21.3 µM [inhibitor, partial curve] | 
O=C(N/N=C/c1ccc([N+](=O)[O-])cc1)c1ccccc1OCc1ccccc1 | inconclusive: 5.36 µM [inhibitor, full curve] | 
COc1cc(C(=O)Nc2nc(-c3ccc(C)cc3)cs2)ccc1OCC(=O)N1CCOCC1 | inconclusive: 26.9 µM [inhibitor, single point] | 
COc1ccc(N=N/C(=C\O)C(=O)c2cccs2)cc1 | inconclusive: 21.3 µM [inhibitor, partial curve, poor fit] | 
O=C(NCC1CCCO1)c1ccc(COc2ccccc2Br)cc1 (centres undefined) | active: 23.9 µM | 
CCCCSc1ccc(NC(=O)c2cccnc2)cc1 | inconclusive: 26.9 µM [inhibitor, partial curve, poor fit] | 
CCc1ccc(C2=CC(c3c(F)cccc3Cl)n3c(nc4ccccc43)N2)cc1 (centres undefined) | active: 19 µM | 
CCc1ccccc1-n1nnc(-c2nsc(NC(=O)c3ccc(C)c(C)c3)n2)c1C | inconclusive: 9.53 µM [inhibitor, partial curve, poor fit] | 
O=C(Nc1ccc2c(c1)OCO2)Nc1ccc(Br)cn1 | active: 6.01 µM | 
CCCCn1c(=O)nc2n(-c3ccc(Br)cc3)c3ccccc3cc-2c1=O |  | inactive: -4.15%
COc1ccc(C2C(C(=O)c3cccs3)=C(O)C(=O)N2Cc2cccnc2)cc1OC (centres undefined) | active: 19 µM | 
CCn1c(CSCc2c(Cl)cccc2Cl)n[nH]c1=S | inconclusive: 37.9 µM [inhibitor, partial curve, poor fit] | 

Compound | Potency | activity change, negative = inhibition
CCc1ccc(C2CC(=O)N3CN(c4ccccc4)CSC3=C2C#N)cc1 (centres undefined) | inconclusive: 10.7 µM [inhibitor, partial curve] | 
CC1CCCN(CCCNC(=O)Cn2ncc3c([nH]c4ccccc43)c2=O)C1 (centres undefined) |  | inactive: -0.69%
NC(=O)c1oc2ccccc2c1NC(=O)CN1CCCCC1 | inconclusive: 26.9 µM [inhibitor, single point] | 
Cc1ccccc1OC(C)C(=O)NCCC1=CCCCC1 (centres undefined) | inconclusive: 37.9 µM [inhibitor, partial curve, poor fit] | 
CCOc1ccccc1NC(=S)Nn1cnnc1 | inconclusive: 26.9 µM [inhibitor, partial curve, poor fit] | 
Cc1oc(-c2ccc(Cl)cc2)nc1CN1CCCC(C(=O)NCc2ccccc2)C1 (centres undefined) | inconclusive: 10.7 µM [inhibitor, partial curve, poor fit] | 
Cc1ccc(S(=O)(=O)N2CCN(C(=O)c3sccc3-c3ccccc3)CC2)cc1 |  | inactive: 1.26%
O=C(Nc1ccccc1)c1ccc(CSc2ncccn2)cc1 | active: 3.38 µM | 
CCCOc1ccc(C(=O)N/N=C/c2ccc(-c3ccc(S(=O)(=O)Nc4ncccn4)cc3)o2)cc1 | inconclusive: 23.9 µM [inhibitor, single point] | 
CC(C)(C)C(=O)N1CCN(CCN2C(=O)c3cccc4cccc(c34)C2=O)CC1 |  | inactive: -4.77%
O=C(OCc1c(Cl)cccc1Cl)c1cnccn1 |  | inactive: 0.618%
COc1ccc(NC(=O)Cc2coc3ccc4ccccc4c23)cc1S(=O)(=O)N1CCOCC1 | active: 13.5 µM | 
CCS(=O)(=O)c1ncc(Cl)c(C(=O)NCc2ccc(OC)cc2)n1 |  | inactive: 5.57%
CCc1nn(CC(=O)Nc2cccc(C(C)=O)c2)c(=O)c2cc3sccc3n12 | inconclusive: 10.7 µM [inhibitor, partial curve, poor fit] | 
N#CCC(=O)N/N=C\c1cccc(OC/C=C/c2ccccc2)c1 | active: 13.5 µM | 
CN(c1ccccc1C(=O)O)S(=O)(=O)c1ccc2[nH]c(=O)oc2c1 |  | inactive: 3.62%
COc1ccc(NC(=O)c2cccnc2NCCc2ccccc2)cc1 | inconclusive: 26.9 µM [inhibitor, single point] | 
CCOC(=O)c1ccccc1NC(=O)Cn1c(=O)n(Cc2nc(C)no2)c(=O)c2ccccc21 |  | inactive: -9.63%
Cc1oc2ccc(OCc3ccc(Br)cc3)cc2c1C(=O)O | inconclusive: 30.1 µM [inhibitor, single point] | 
Cc1cc(C)nc(CCNC(=O)c2cc(COc3c(C)cccc3C)on2)n1 | inconclusive: 33.8 µM [inhibitor, partial curve, poor fit] | 
COc1ccccc1N1CCN(C(=O)C2CCC(Cn3c(=S)[nH]c4ccccc4c3=O)CC2)CC1 (centres undefined) |  | inactive: 5.45%
COc1ccccc1C(=O)NNC(=S)NC(=O)c1ccco1 |  | inactive: -2.01%
O=C(Nc1cccnc1)c1ccc(Cl)c(S(=O)(=O)N2CCCCCC2)c1 | inconclusive: 16.9 µM [inhibitor, partial curve] | 
CCOc1ncccc1C(=O)OCC(=O)c1ccc(OC)c(OC)c1 |  | inactive: -6.42%
CC(C)Oc1ccc(C2CC(=O)N(c3cccc(Br)c3)C2=O)cc1 (centres undefined) | inconclusive: 37.9 µM [inhibitor, single point] | 

Compound | Potency | activity change, negative = inhibition
Cc1ccc(C(=O)Nc2ccc3cn[nH]c3c2)cc1S(=O)(=O)N1CCOCC1 | inconclusive: 19 µM [inhibitor, partial curve] | 
Cc1nn2c(=O)cc(COC(=O)c3cccs3)nc2s1 | inconclusive: 15.1 µM [inhibitor, partial curve, poor fit] | 
Cc1ccc2nc(-c3ccncc3)cc(C(=O)NCc3ccccc3F)c2c1 | inconclusive: 26.9 µM [inhibitor, single point] | 
COc1ccc(S(=O)(=O)c2c(O)c3ccc(C(=O)Nc4ccccc4)cc3[nH]c2=O)cc1 | inconclusive: 26.9 µM [inhibitor, single point] and inconclusive: 37.9 µM [inhibitor, single point] | 
COc1ccc(-n2c(C)cc(C3=NNC(=NC4CC4)SC3)c2C)cc1 | active: 5.36 µM | 
Cc1cc(Nc2ccccc2)nn1C(=O)c1ccc([N+](=O)[O-])cc1 |  | inactive: 0.312%
COc1cc(Nc2ncc3c(n2)CCN(Cc2cccc(C)c2)C3)cc(OC)c1 |  | inactive: -2.89%
Cc1cc(=O)[nH]c(SCC(=O)Nc2ccc(F)cc2)c1C#N | inconclusive: 16.9 µM [inhibitor, partial curve] | 
NC(=O)[C@H]1CC2(CC(c3cccc(NC(=O)COc4ccc(Cl)cc4)c3)=NO2)CN1C(=O)CC(c1ccccc1)c1ccccc1 (some centres undefined) | inconclusive: 26.9 µM [inhibitor, partial curve, poor fit] | 
Cc1oc2c(C)c3oc(=O)c(CC(=O)N4CCCCC4)c(C)c3cc2c1C |  | inactive: -12.3%
O=C(CSc1ccc(F)cc1)NC12CC3CC(CC(C3)C1)C2 | inconclusive: 26.9 µM [inhibitor, partial curve, poor fit] | 
CC(/C=C/c1ccccc1F)=N\NC(=O)c1ccccc1 | active: 16.9 µM | 
CCN(CC)C(=S)SCC(=O)c1ccc(F)cc1 | active: 15.1 µM | 
Cc1c(C(=O)NCCc2ccccc2)oc2ccccc12 | active: 2.13 µM | 
O=C(COC(=O)/C=C/c1ccccc1Cl)NCc1ccco1 | inconclusive: 30.1 µM [inhibitor, partial curve, poor fit] | 
Cc1ccc(C)c(N2CCN(C(=O)C3CCCN(c4ncnc5c4nc4n5CCCCC4)C3)CC2)c1 (centres undefined) |  | inactive: 3.54%
O=S(=O)(c1ccc2oc3ccc(S(=O)(=O)N4CCCCC4)cc3c2c1)N1CCCCC1 |  | inactive: -0.839%
COc1ccc(/C=N/NC(=O)c2cccc(C(=O)N/N=C/c3ccc(OC)cc3)n2)cc1 | active: 0.301 µM | 
CCCn1cnc2c(oc3ccccc32)c1=O | inconclusive: 37.9 µM [inhibitor, partial curve, poor fit] | 
O=C(NCC1(c2ccccc2)CCCC1)C(=O)Nc1cccc(Br)c1 |  | inactive: 4.17%
Cc1ccc(C(=O)Cn2c(=N)n(N)c3ccccc32)cc1 | inconclusive: 7.57 µM [inhibitor, partial curve, poor fit] | 
Cc1nc(/N=C(\N)NC(=O)NC2CCCCC2)nc2ccccc12 | active: 16.9 µM | 
Cc1nc2ccccn2c1C(=O)NN=C1CCN(C)CC1 |  | inactive: -1.15%
O=C(CCSc1ccccc1)Nc1nc2c(s1)CCCC2 | active: 19 µM | 

From PubChem BioAssay AID588342 (National Center for Advancing Translational Sciences (NCATS), 2011)
